Assay results from PubChem BioAssay AID1508623 (National Center for Advancing Translational Sciences (NCATS), 2021).
“And” between values parts separate entries of the source, which are not always exact repeats. Equal values may be shown once. About 450 (0.94%) of roughly 48,000 compounds were called active. The inconclusive results got no clear call from the source; some entries with a clear call stand among them for comparison. Calls come from the whole dose curve; as a rule, active = well fitted inhibition curve with a large enough effect; inconclusive = small, poorly fitted or top-dose-only effect; inactive = no such curve, though single readings can be large or run the other way. Where the call is inconclusive, the potency comes from a doubtful curve fit.

Assay: Primary qHTS for Identification of Small Molecule Inhibitors of Huntingtin Promoter Activity; note: nearly all actives have a fitted effect of over 50% in size
Settings: HEK293 HTT promoter firefly luciferase reporter (activity 0% = vehicle and -100% = no light), 24 h; series mostly up to 57.5 µM
How it was run: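 Luminescence was read after Dual-Glo reagent and a 10 min room-temperature incubation. Values were normalized to vehicle (0% activity) and zero RLU (-100% activity). Reporter HEK293 cells had been exposed to compounds (up to 57.5 uM final) for 24 h.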
Potency is the fitted concentration of half-maximal effect; tags give direction and shape of the fitted curve.

Row | Compound | Potency
1 | Cc1nc2ccccc2n1CCc1nc2c3ccccc3nc(SCC(=O)Nc3ccc(C(C)C)cc3)n2n1 | inconclusive: 39.8 µM [inhibitor, partial curve, poor fit]
2 | COc1ccc(NC(=O)c2ccco2)cc1NC(=O)COc1ccc(C)cc1C | inconclusive: 39.8 µM [inhibitor, single point]
3 | CCCc1ccc(NC(=O)C2CCN(c3cnccn3)CC2)cc1 | inconclusive: 20 µM [inhibitor, single point]
4 | CCN(CC)c1ccc(C(=O)NCc2ccc3c(c2)CCN3C(C)=O)cc1 | inactive
5 | COc1cccc(-c2nnc3n(Cc4ccccc4Cl)c(=O)c4ccccc4n23)c1O | inconclusive: 25.1 µM [inhibitor, partial curve]
6 | O=C(CSc1nc(-c2ccccc2)cn1-c1ccccc1)Nc1ccccc1 | inconclusive: 39.8 µM [inhibitor, single point]
7 | Cc1cc(C)c(C(=O)Nc2ccccc2)c(SCC(=O)Nc2ccc(Br)cc2C)n1 | inconclusive: 25.1 µM [inhibitor, partial curve, poor fit]
8 | COC(=O)[C@]12CCC(C)(C)C[C@@H]1[C@@H]1C(=O)C=C3[C@@]4(C)C=C(C#N)C(=O)C(C)(C)[C@@H]4CC[C@@]3(C)[C@]1(C)CC2 | inconclusive: 1.93 µM [inhibitor, full curve]
9 | COc1cc2ncnc(Nc3ccc(F)c(Cl)c3)c2cc1NC(=O)C=CCN1CCCCC1 | inactive
10 | O=C(CCc1ccc(O)cc1)c1c(O)cc(O)cc1O | inconclusive: 2.73 µM [inhibitor, full curve]
11 | COc1ccc2nc(NC(=O)c3ccc(S(=O)(=O)N4CCCC(C)C4)cc3)sc2c1 (centres undefined) | inconclusive: 3.98 µM [inhibitor, single point]
12 | CCc1ccc(NC(=O)CSc2nc(=O)n(Cc3ccco3)c3c2CCC3)cc1 | inconclusive: 31.6 µM [inhibitor, single point]
13 | Cc1noc2ncnc(NCc3cccc(Cl)c3)c12 | inconclusive: 17.8 µM [inhibitor, partial curve]
14 | CN1CCN(CCCN2c3ccccc3Sc3ccc(C(F)(F)F)cc32)CC1 | inactive and inconclusive: 15.3 µM [inhibitor, partial curve]
15 | Cc1ccc(-n2c(SCC(=O)Nc3cccc(Cl)c3)nc3n[nH]c(C)c3c2=N)cc1 | inconclusive: 20 µM [inhibitor, single point]
16 | Cc1cc(N2CCC(C)CC2)nc2ccc(NC(=O)/C=C/c3cccc(Cl)c3)cc12 | inactive
17 | CC(C)c1ccc(Nc2c(-c3ccccc3O)nc3cnccn23)cc1 | inactive
18 | COC(=O)Nc1nc2ccc(C(=O)c3cccs3)cc2[nH]1 | inactive
19 | Cn1c(Oc2ccc(F)cc2)nc2c1c(=O)n(Cc1ccccc1Cl)c(=O)n2C | inconclusive: 25.1 µM [inhibitor, partial curve, poor fit]
20 | COc1ccc(Cn2ccc3nc(C)c(C(=O)Nc4ccc(C)c(F)c4)cc3c2=O)cc1 | inactive

Row | Compound | Potency
21 | CCSc1nc2c(c(=O)[nH]c(=O)n2C)n1CC(O)COc1ccc(Cl)cc1 (centres undefined) | inconclusive: 10 µM [inhibitor, partial curve, poor fit]
22 | Cc1c(Cl)cccc1NC(=O)Cn1nc(C)c2sc3ccccc3c2c1=O | inconclusive: 0.355 µM [inhibitor, full curve]
23 | Cc1nc(SCC(=O)Nc2ccc(Br)cc2)[nH]c(=O)c1Cc1ccccc1 | inconclusive: 31.6 µM [inhibitor, single point]
24 | CCCCOC(=O)c1ccc(NC(=O)Cc2coc3ccc(C(C)C)cc23)cc1 | inconclusive: 31.6 µM [inhibitor, single point]
25 | COc1cc(C(=O)N2CCc3c([nH]c4ccccc34)C2c2ccccc2)cc(OC)c1OC (centres undefined) | inconclusive: 31.6 µM [inhibitor, partial curve, poor fit]
26 | Cc1cccc(N(CC(=O)NCCSc2ccc(Cl)cc2)S(=O)(=O)c2ccccc2)c1C | inconclusive: 22.4 µM [inhibitor, partial curve, poor fit]
27 | COc1cccc(-c2nn(C)c3sc(C(=O)N4CCN(c5cccc(C)c5)C(C)C4)cc23)c1 (centres undefined) | inconclusive: 31.6 µM [inhibitor, single point]
28 | COc1ccccc1CCNC(=O)Cn1ccc2cc(S(=O)(=O)N3CCCCCC3)ccc21 | inconclusive: 25.1 µM [inhibitor, partial curve, poor fit]
29 | CCOC(=O)C1CCC(CN(Cc2c(Cl)cccc2Cl)S(=O)(=O)c2ccc(F)cc2)CC1 (centres undefined) | inconclusive: 39.8 µM [inhibitor, single point]
30 | Cc1ccccc1-c1noc(CSc2nnc(-c3ccncc3)n2-c2ccc(F)cc2)n1 | inconclusive: 31.6 µM [inhibitor, partial curve]
31 | Cc1ccc(OCCCCn2c(CCNC(=O)C(C)(C)C)nc3ccccc32)cc1 | inconclusive: 25.1 µM [inhibitor, single point]
32 | CCOc1ccc(N(CC)C(=O)CSc2n[nH]c(-c3ccccc3)n2)cc1 | inconclusive: 20 µM [inhibitor, single point]
33 | Cc1oc(-c2ccc(C(=O)NCc3ccccc3)cc2)nc1CS(=O)(=O)c1ccccc1 | inconclusive: 20 µM [inhibitor, partial curve]
34 | COc1ccc(CCN2C(=O)N(c3ccc(F)cc3)C(=O)C2CC(=O)Nc2ccc(F)c(F)c2)cc1 (centres undefined) | inconclusive: 20 µM [inhibitor, partial curve, poor fit]
35 | CC(C)[N+]1(C)[C@@H]2CC[C@H]1CC(OC(=O)C(CO)c1ccccc1)C2 (some centres undefined) | inactive
36 | Cc1ccc(OCc2ccc(-c3nc(C#N)c(N4CCC(C)CC4)o3)o2)cc1 | inconclusive: 31.6 µM [inhibitor, single point]
37 | COc1ccc(-c2noc(N3CCN(c4cccc(C)c4C)CC3)n2)cc1OC | inconclusive: 39.8 µM [inhibitor, partial curve, poor fit]
38 | CCc1cccc(C)c1NC(=O)C(C)Sc1nc2c(c(=O)[nH]1)CCCC2 (centres undefined) | inconclusive: 22.4 µM [inhibitor, partial curve, poor fit]
39 | COc1ccccc1C(=O)Nc1nnc(SCc2cc(=O)n3ccc(C)cc3n2)s1 | inactive
40 | CCc1ccccc1NC(=O)C1CCN(C2=NS(=O)(=O)C(c3ccc(C)c(C)c3)=C2C)CC1 | inconclusive: 39.8 µM [inhibitor, partial curve, poor fit]

Row | Compound | Potency
41 | CC1=C(C(=O)OCc2ccc(C)cc2)C(c2ccccc2Cl)CC(=O)N1 (centres undefined) | inconclusive: 28.2 µM [inhibitor, single point]
42 | CNC[C@H](O)c1ccc(O)c(O)c1 | inactive
43 | CCC1CCCCN1S(=O)(=O)c1ccc(C(=O)Nc2sc3c(c2C(=O)NC)CCC3)cc1 (centres undefined) | inconclusive: 14.1 µM [inhibitor, partial curve, poor fit]
44 | COc1ccccc1CNC(=O)c1oc2ccc(S(=O)(=O)N3CCCCC3)cc2c1C | inconclusive: 35.5 µM [inhibitor, partial curve, poor fit]
45 | Cc1ccc(CSc2ncc(Cl)c(C(=O)NCCc3ccc(S(N)(=O)=O)cc3)n2)cc1 | inconclusive: 25.1 µM [inhibitor, partial curve]
46 | COC(=O)[C@H](CCCN=C(N)N)NS(=O)(=O)c1ccc(C)cc1 | inactive
47 | COc1ccc(NC(=O)CSc2nc(-c3ccc(OC)cc3)[nH]c2-c2ccc(OC)cc2)cc1 | inconclusive: 35.5 µM [inhibitor, partial curve, poor fit]
48 | COC(=O)c1ccc(Nc2nnc(-c3ccc(C)c(S(=O)(=O)N4CCN(C)CC4)c3)c3ccccc23)cc1 | inactive
49 | COc1ccccc1N(CC(=O)NCCSCc1ccccc1)S(=O)(=O)c1ccc(C)cc1 | inconclusive: 28.2 µM [inhibitor, partial curve, poor fit]
50 | Cc1ccc(NC(=O)Cc2ccc(-n3c(C)nc4cccnc43)cc2)cc1C | inconclusive: 25.1 µM [inhibitor, partial curve, poor fit]
51 | CCOC(=O)c1cc(-c2ccccc2)n(CCCC(=O)Nc2ccc(C(C)C)cc2)c1C | inconclusive: 17.8 µM [inhibitor, partial curve, poor fit]
52 | COc1cccc(CNC(=O)CCc2cn(Cc3ccccc3Cl)c3ccccc23)c1 | inconclusive: 15.8 µM [inhibitor, partial curve]
53 | COc1ccc(Cn2c(SCc3ccc(C(=O)NC4CCCC4)cc3)nc3ccncc32)cc1 | inconclusive: 31.6 µM [inhibitor, single point]
54 | CNC(=O)c1cc(Oc2ccc(NC(=O)Nc3ccc(Cl)c(C(F)(F)F)c3)c(F)c2)ccn1 | inconclusive: 24.3 µM [inhibitor, partial curve]
55 | CCCOc1cccc(C(=O)Nc2cccc(NC(=O)c3ccc(C(C)(C)C)cc3)c2)c1 | inactive
56 | CN(C)c1ccc(C(CNC(=O)c2ccc(C(C)(C)C)cc2)N2CCOCC2)cc1 (centres undefined) | inconclusive: 25.1 µM [inhibitor, partial curve, poor fit]
57 | COc1cc(-c2ccno2)ccc1S(=O)(=O)N1CCN(c2ccc(C(C)=O)cc2)CC1 | inconclusive: 14.1 µM [inhibitor, single point]
58 | O=C(CSc1nccn1-c1ccc(F)cc1)Nc1ccc(OC(F)(F)F)cc1 | inconclusive: 39.8 µM [inhibitor, single point]
59 | Cc1ccc2c(C)c(C(=O)N(Cc3ccc(Cl)cc3)C3CCS(=O)(=O)C3)oc2c1 (centres undefined) | inconclusive: 22.4 µM [inhibitor, partial curve, poor fit]
